# Laboratory results taken from PubChem BioAssay (NCI).
# Some structures have more than one record in an assay (separate samples or runs), and their calls can disagree.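 Each cell line was grown in a 96-well plate and treated with one concentration of compound for 48 hours. Values below 10 were considered active.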 A number of entries come with more than one value. The other results are left out here. An entry can have further records. The screen tested this drug many times, at the concentration stated with the values; each value is one run. Counts like (3×) count equal records among those shown.
# Tests used:
# Test in all cases: NCI-60 one-dose screen, 48 h (100 = growth as untreated, 0 = no growth, -100 = all killed)
# MDA-MB-231 breast = conditions: 2.5 mM; runs of 2000
# RXF 393 renal = conditions: 2.5 mM
# SF-268 CNS = conditions: 2.5 mM
compound,measurement,setting,value
O=c1[nH]cc(F)c(=O)[nH]1,growth,MDA-MB-231 breast,"active: 0.0747, 1.34, 3.42, -25.4%"
same,growth,RXF 393 renal; runs of 1991,"active: -47.2, -53.1, -48.7, 8.4, -43.3, -6.17, -54.5, -38.6, 6.87, -39.7, -35.7, -22.5, -48.9, -26.8, -39.3, -54.3, -45.8, -42.1%"
same,growth,RXF 393 renal; runs of 1992,"active: -15.3, -44.4 (2×), -18, -47.4, -38.4, -39.1, -10.5, -12, -39.3, -26.6 (2×), -58.9, -54.5 (2×), -36.8, -71.5, -50.9, -0.616, -43.1, -37.4, -15, -45, -45.8, -19.8, -41.4, -21, 1.1, -72.1, -13.7, -52.4, -30.1, -79.2, -78.5, -11.6, -24.9, -10.2, -41.8, -36.5, -21.8, -39.9, -22.7, -17.1, -56.6, -62.9, -73.7, -76, -55.7, -50.2, -62.6, -35.2, -61.2, -52.8, -57, -70.3, -68.4, -34.1, -22, -16.6, -57.2, -44.2, -27.3, -56.4, -55.5, -29.2, -55.6 (2×), -31.4, -60.6, -61.9, -78.3, -68.1 (2×), -42, -38, -64.2 (2×), -4.01, -32.4, -65.2, -34.2, -68.7, -9.65, -34.7, -33.7, -12.4, -82.5, -64.4, -2.97% and inactive: 29.2, 17.8, 87.9, 33.1, 47.8%"
same,growth,RXF 393 renal; runs of 1993,"active: 4.75, -58.2, -30.8, 4.9, -41.4, -31.2, -64.9, -43.6, -65, -52.2, -26.2, 1.08, -47.8, -21.6, -33.8 (2×), -45.7, -2.95, -19.9, -53.8, -41.8, -23.2, -9.06, -55.5, -58.8, -42.2, -43.2, -37.1, -25.4, -74.3, -21, -40.9, -13.4, -13.9, -1.58% and inactive: 30.2, 13.6, 50.1, 83.9, 98.8, 17%"
same,growth,RXF 393 renal; runs of 1994,"active: -29, -11.6, -16.2, 4.28, -48.7, -23.2, -6.72, -30.4, -43, -22.8, -22.6, -45.7, -17.5, -12.1, -29.3, -0.101, -43.7, -53, -8.96, -52.9, -49.4% and inactive: 16.7, 24.4, 17.4, 36.4%"
same,growth,RXF 393 renal; runs of 1995,"active: 2.15, -82.3, -59.1, -2.84, -74.9, -24.3, -67.3, -33.2, -55.3, -59.2, -79.7, -14.1, -82.6, -21.5, -73.1, -35 (2×), -15.5, -13.2, -29.8, -36.3, -11.2, -18.9, -33.4, -57.1, -40.3, -9.47, -65.5, -42.2% and inactive: 37.4, 20.7, 13.1, 14.3, 16.7, 50.7%"
same,growth,RXF 393 renal; runs of 1996,"active: -11.4, -19, -75.1, -34.9, -9.09, -33.6, -6.68, 5.88, 9.28, -59.4, -27.7, -14.2, -69.2, -45.8, 0, -16.1, -67, 7.3, -5.75, -18.7, -35.9 (2×), -18.8, -25, -23.6, 8.61, -3.33, -10.6, -52, -44.5, -41.5, -7.59, -23.5 (2×), -21.1, -17.5, -48.8, -25.6, -23.4, -11.2, -40.9, -35.6 (2×), -67.7, -8.83, -32, -27.5% and inactive: 20.2, 58.1, 25, 15.8, 18.7, 37.1, 38.7, 35.8%"
same,growth,RXF 393 renal; runs of 1997,"active: -13.1, -3.94, -44.1, -13, -23, -46.2, -8.03, 1.37, -11.2, -23.7, -35.3, -16.9, -45.6, -19.2, -57, -18.1, -39.4, -38.7, -19.6, -48.1, -71.5, 7.44, 4.84, -14.7, -17.5, -12.5, -12.7, -8.22, 1.62, -60.8, -41.5, -1.43, -29.7, -42.2% and inactive: 34.6, 15.4, 65, 14.8, 65.1%"
same,growth,RXF 393 renal; runs of 1998,"active: -5.75, -35.9, -3.4, -17.2, -21.1, -4.54, -26.5, -25.2, -3.44, -43.3, -43, -47.7, -22.8, -43.2, -26.3, -36.4, -42.6, -12.9, -57.6, -39.7% and inactive: 11.4%, 16%"
same,growth,RXF 393 renal; runs of 1999,"inactive: 89.3%, 74.2% and active: -19.8, -57.7, -63.8, -46.1, -21.5, -27.3, -6.12, -22.1, 1.85, -41.7, 6.77, -45, -58.4, -44.3, 1.66%"
same,growth,RXF 393 renal; runs of 2000,"active: 0.963, -51.8, -1.94, 0.0266%"
same,growth,SF-268 CNS; runs of 1991,"inactive: 39.5, 41.4, 35.1, 38.5, 32.3, 30.9, 12.1, 38.6, 35.6, 36.5, 24.8, 30, 16.7, 27.1, 33.6, 28.5, 27.4, 15.9% and active: 3.12%, -94.1%"
same,growth,SF-268 CNS; runs of 1992,"inactive: 34.8 (2×), 33.4, 27.7 (2×), 30.9, 23.8, 13.1, 20.4 (2×), 18.4 (2×), 35.2, 27.8, 31, 17.5, 25.9, 24.5 (2×), 23.6, 20.9 (2×), 22.9, 51.3, 24.3, 38.6 (2×), 31.4 (2×), 37.6 (2×), 34.6, 40.5, 25, 39.8, 19.9, 22.8, 22.4, 39.3, 40.4, 42.8, 40.1 (2×), 45.4, 36.5, 24 (2×), 23.5, 34.9 (2×), 29.1, 26.1, 41.4, 59.9, 102, 43.1, 37.8, 37.7, 41.3, 50.9, 53.6, 16.1, 18.3, 24.9, 37.2, 34.1, 19.4, 37.3, 48.9, 39.2, 32, 53.1, 29.9, 29.3, 26.8 (2×), 24.4, 21.9, 20.2, 48, 43.5, 37.9, 28, 28.6, 34.3, 26.2, 22.2, 33.7, 17.8, 44.1, 30.7, 27.3 (2×), 36.1, 22.5 (2×), 22.3, 16.6, 25.3, 63.8, 15.6, 37.5, 31.8, 45.9, 12.3, 42.5, 36.3, 28.4, 31.6, 16, 63.7, 19.2, 31.2, 42.3% and active: 8.47, -1.03, 3.98, 6.74, 4.61, 2.33, 2.31, -1.49%"
same,growth,SF-268 CNS; runs of 1993,"inactive: 23.6, 45.5, 46.8, 38.6 (2×), 34, 17.2, 43.1, 30.7, 24.4, 30, 45.9, 34.4 (2×), 11.9, 33.2, 20.5, 27.4, 33, 31.8, 31.4, 26.5, 29.6, 32.5, 31.9, 80, 30.6, 20.8, 34.7, 27.8, 14.1, 36.5, 38.4, 23.7, 39.2, 26.6, 82.2, 44.5, 91.8, 19.2, 43.8, 17.6, 36.8, 24.7, 31.5, 37.1, 10.2% and active: -20.9%"
same,growth,SF-268 CNS; runs of 1994,"inactive: 24.4, 40.2, 40.6 (2×), 21.5, 36.6, 30.4 (2×), 24.3 (2×), 45.2, 38.9, 35.9, 39.5, 26.5, 20, 42.5, 47.6, 34.4, 36.7, 27.6, 37.4, 32.3, 21.8, 44.3, 25.4, 33.8, 26.9, 22.2, 28.7, 43.8% and active: -62.7%, 9.01%"
